Patent publication US20160346398A1, “CROSS-LINKED HYALURONIC ACID FOR DRUG DELIVERY AND PHARMACEUTICAL PREPARATION USING SAME” (ALURON BIOPHARMA INC., priority 2015, published 2016)

Experiments:
[1] = system: human breast MCF-7 tumors
[2] = system: human breast MCF-7 tumors; details: for activity towards human MCF-7 breast tumors (in words): dose 50 mg/kg

Row | SMILES | Mean tumor volume (mm^3) ± SD ([1]; Day 60, dose 5 mg/kg oral) | tumor regression (in words) ([1]; dose 5 mg/kg) | Number of tumor-free animals ([1]; end of study, dose 5 mg/kg) | Mean tumor volume (mm^3) ± SD ([2]; Day 49, dose 50 mg/kg oral) | activity towards human MCF-7 breast tumors (in words) ([2]; listed as Pure Raloxifene) | activity towards human MCF-7 breast tumors (in words) ([2]; listed as Unconjugated Raloxifene)
1 | N#Cc1ccc(C(c2ccc(C#N)cc2)n2cncn2)cc1 [Letrozole] | 54.0 ± 13.9 mm^3 | tumor regression leading to tumor-free animals | 3/10 | – | – | –
2 | O=C(c1ccc(OCCN2CCCCC2)cc1)c1c(-c2ccc(O)cc2)sc2cc(O)ccc12 [Raloxifene] | – | – | – | 1919.5 ± 104.1 mm^3 | did not suppress tumor growth | inactive

Like-named read-outs stand apart in the source and are kept apart here.
